From patent US20220411483A1 (Chugai, published 2022)
Numbering of substitutions follows the chain as printed. Where two headings read alike, the source gives them in different places.

Tests used:
[1] = target: T1, FcγRIIa R type extracellular domain, His tag (human, UniProt P12318 34-217); assay: SPR kinetics, antibody captured
T1 construct: extracellular domain; also called FcgRIIaR
T1 sequence (looked up): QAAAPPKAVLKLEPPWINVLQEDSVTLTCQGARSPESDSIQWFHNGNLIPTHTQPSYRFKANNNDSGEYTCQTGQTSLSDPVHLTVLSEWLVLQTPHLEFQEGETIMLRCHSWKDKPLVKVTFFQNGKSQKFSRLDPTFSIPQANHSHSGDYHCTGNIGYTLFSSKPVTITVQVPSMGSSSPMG

[2] = target: T2, FcγRIa extracellular domain, His tag (human, UniProt P12314 16-292); assay: SPR kinetics, antibody captured
T2 construct: whole entry named; also called FcgRIa

[3] = target: T1, FcγRIIa R type extracellular domain, …; assay: SPR, bound amount per captured antibody
[4] = target: T1, FcγRIIa R type extracellular domain, …; assay: SPR, KD ratio
[5] = target: T2, FcγRIa extracellular domain, His tag; assay: SPR, KD ratio
[6] = target: T3, FcγRIIIa V type extracellular domain, His tag (human, UniProt P08637 part only); assay: SPR, KD ratio
T3 construct: extracellular domain; also called FcgRIIIaV

[7] = target: T4, FcγRIIa H type extracellular domain, His tag (human, UniProt P12318 34-217); assay: SPR, KD ratio
T4 construct: extracellular domain; also called FcgRIIaH
T4 sequence (looked up): T1 sequence (looked up) with R134H

FcgRIIaR [8] = target: T5, FcgRIIaR (human, UniProt P12318 34-217); assay: SPR, amount bound per captured antibody
T5 construct: extracellular domain; also called FcγRIIa R type; FcγRIIa (R type)
T5 sequence (looked up): T1 sequence (looked up)

human complement C1q = target: T6, human complement C1q (human, UniProt P02745; P02746; P02747); assay: SPR, C1q bound per antibody captured on Protein L
T6 construct: Bought (PROSPEC or Calbiochem); also called human C1q
Experimental: The interaction between an antibody and human C1q was analyzed using Biacore T200 (GE Healthcare). HBS-EP+ (GE Healthcare) was used as the running buffer, and the measurement temperature was set at 25° C. Chips produced by immobilizing Protein L (ACTIGEN or BioVision) onto Series S sensor Chip CM4 (GE Healthcare) by amine coupling were used.
The antibodies of interest were captured onto these sensor chips, and allowed to interact with human complement C1q (PROSPEC or Calbiochem) diluted in the running buffer. The amount of antibody binding was determined, and comparisons were made among the antibodies. However, since the amount of C1q bound depends on the amount of captured antibodies, corrected values obtained by dividing the amount of C1q bound by the amount of each antibody captured were compared. Furthermore, by reaction with 10 mM glycine-HCl, pH 1.5, the antibodies captured onto the sensor chips were washed, and the sensor chips were recycled and reused.

FcgRIIaR [9] = target: T5, FcgRIIaR; assay: SPR, amount bound per captured antibody; remark: listed apart in the source
FcgRIIIaV [10] = target: T7, FcgRIIIaV (human, UniProt P08637 part only); assay: SPR (Biacore)
T7 construct: extracellular domain; also called FcγRIIIa V type

FcgRIa [11] = target: T8, FcgRIa (human, UniProt P12314 16-292); assay: SPR (Biacore)
T8 construct: also called FcγRIa; FcγRI

FcgRIIaR [12] = target: T5, FcgRIIaR; assay: SPR (Biacore)
FcgRIIaH [13] = target: T9, FcgRIIaH (human, UniProt P12318 34-217); assay: SPR (Biacore)
T9 construct: extracellular domain; also called FcγRIIa H type
T9 sequence (looked up): T1 sequence (looked up) with R134H

FcgRIIIaV [14] = target: T7, FcgRIIIaV; assay: SPR (Biacore); remark: listed apart in the source
FcgRIa [15] = target: T8, FcgRIa; assay: SPR (Biacore); remark: listed apart in the source
FcgRIIaR [16] = target: T5, FcgRIIaR; assay: SPR (Biacore); remark: listed apart in the source
FcgRIIaH [17] = target: T9, FcgRIIaH; assay: SPR (Biacore); remark: listed apart in the source

T8 sequence (P12314 16-292): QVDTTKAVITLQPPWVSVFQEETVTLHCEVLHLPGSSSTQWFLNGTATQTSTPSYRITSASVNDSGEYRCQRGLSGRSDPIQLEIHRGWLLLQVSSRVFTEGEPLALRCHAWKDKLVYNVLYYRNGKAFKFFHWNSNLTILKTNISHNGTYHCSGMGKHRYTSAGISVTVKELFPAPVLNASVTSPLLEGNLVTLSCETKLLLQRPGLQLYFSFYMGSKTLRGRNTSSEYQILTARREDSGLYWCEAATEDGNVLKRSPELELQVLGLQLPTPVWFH
T7 sequence (P08637 17-208 F176V): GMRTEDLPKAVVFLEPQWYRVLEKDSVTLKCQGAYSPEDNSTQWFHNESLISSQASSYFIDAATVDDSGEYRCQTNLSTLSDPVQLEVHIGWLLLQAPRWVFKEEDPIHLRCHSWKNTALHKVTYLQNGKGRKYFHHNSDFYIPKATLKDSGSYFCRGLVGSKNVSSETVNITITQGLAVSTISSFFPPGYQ
T2 sequence (P12314 16-292): as the sequence (P12314 16-292) above
Chain of human complement C1q (P02745 23-245 limits assumed, chain 1 of 3): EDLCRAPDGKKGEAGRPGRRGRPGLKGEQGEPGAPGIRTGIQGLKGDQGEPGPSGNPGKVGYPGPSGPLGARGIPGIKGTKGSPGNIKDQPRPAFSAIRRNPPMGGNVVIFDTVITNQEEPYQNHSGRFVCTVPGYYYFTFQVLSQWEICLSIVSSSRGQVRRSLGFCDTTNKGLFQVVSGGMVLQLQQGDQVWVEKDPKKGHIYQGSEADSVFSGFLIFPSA
Chain of human complement C1q (P02746 28-253 limits assumed, chain 2 of 3, further chain): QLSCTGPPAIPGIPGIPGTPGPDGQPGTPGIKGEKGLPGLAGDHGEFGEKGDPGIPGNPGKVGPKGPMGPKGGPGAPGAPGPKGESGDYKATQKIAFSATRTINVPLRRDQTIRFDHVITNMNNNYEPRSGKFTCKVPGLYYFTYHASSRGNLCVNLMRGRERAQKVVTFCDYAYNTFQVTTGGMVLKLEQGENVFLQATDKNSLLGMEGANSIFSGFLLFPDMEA
Chain of human complement C1q (P02747 29-245 limits assumed, chain 3 of 3, further chain): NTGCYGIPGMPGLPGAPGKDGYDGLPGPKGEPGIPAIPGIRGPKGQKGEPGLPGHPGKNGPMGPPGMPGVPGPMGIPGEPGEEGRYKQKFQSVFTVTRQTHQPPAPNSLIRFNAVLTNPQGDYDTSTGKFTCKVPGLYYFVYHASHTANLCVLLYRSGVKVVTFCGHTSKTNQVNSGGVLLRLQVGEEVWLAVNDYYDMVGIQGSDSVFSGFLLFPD

B1: IL6R-F648/IL6R-L (antibody, human IgG1, kappa)
heavy: QVQLQESGPGLVKPSETLSLTCAVSGHSISHDHAWSWVRQPPGEGLEWIGFISYSGITNYNPSLQGRVTISRDNSKNTLYLQMNSLRAEDTAVYYCARSLARTTAMDYWGEGTLVTVSS[human IgG1 constant region with P238D (EU numbers) not shown]
light: DIQMTQSPSSLSASVGDRVTITCRASQDISSYLNWYQQKPGKAPKLLIYYTSRLHSGVPSRFSGSGSGTDFTFTISSLQPEDIATYYCQQGNTLPYTFGQGTKVEIKRTVAAPSVFIFPPSDEQLKSGTASVVCLLNNFYPREAKVQWKVDNALQSGNSQESVTEQDSKDSTYSLSSTLTLSKADYEKHKVYACEVTHQGLSSPVTKSFNRGEC
**Q.** For B1, which Kd [1] is on record?
**A.** 19 µM

**Q.** And the Kd [2]?
**A.** 0.008 µM

**Q.** What about the “Relative FcgRIIaR-binding Activity” value [3] of the same binder?
**A.** 29.9 % of IL6R-G1d/IL6R-L

**Q.** What about the “Relative FcgRIIaR-binding Activity” value [4] of the same binder?
**A.** 0.065 fold of IL6R-G1d/IL6R-L

**Q.** And the “Relative FcgRIa-binding Activity” value [5]?
**A.** 0.0413 fold of IL6R-G1d/IL6R-L

**Q.** And the “Relative FcgRIIIaV-binding Activity” value [6]?
**A.** 0.005 fold of IL6R-G1d/IL6R-L

**Q.** And the “Relative FcgRIIaH-binding Activity” value [7]?
**A.** 0.012 fold of IL6R-G1d/IL6R-L

B2: IL6R-F648/IL6R-L (antibody, human IgG1, kappa)
heavy: B1 heavy
light: B1 light
**Q.** Which results are given for B2?
**A.** Relative FcgRIIaR-binding Activity (FcgRIIaR [8]): 29.9 IL6R-G1d/IL6R-L=100; Amount of C1q-binding when that for G1d is Defined as 100 (human complement C1q): 21.5 G1d=100; Relative FcgRIIaR-binding Activity (FcgRIIaR [9]): 30.7 IL6R-G1d/IL6R-L=100; Relative FcgRIIIaV-binding Activity (FcgRIIIaV [10]): 0.005 KD(G1d)/KD(variant); Kd (FcgRIa [11]): 0.008 µM; Relative FcgRIa-binding Activity (FcgRIa [11]): 0.0413 KD(G1d)/KD(variant); Kd (FcgRIIaR [12]): 19 µM; Relative FcgRIIaR-binding Activity (FcgRIIaR [12]): 0.065 KD(G1d)/KD(variant); Relative FcgRIIaH-binding Activity (FcgRIIaH [13]): 0.012 KD(G1d)/KD(variant); Relative FcgRIIIaV-binding Activity (FcgRIIIaV [14]): 0.005 KD(G1d)/KD(variant); Kd (FcgRIa [15]): 0.008 µM; Relative FcgRIa-binding Activity (FcgRIa [15]): 0.0413 KD(G1d)/KD(variant); Kd (FcgRIIaR [16]): 19 µM; Relative FcgRIIaR-binding Activity (FcgRIIaR [16]): 0.065 KD(G1d)/KD(variant); Relative FcgRIIaH-binding Activity (FcgRIIaH [17]): 0.012 KD(G1d)/KD(variant)
